# From US20230086069A1 (SYSTIMMUNE, published 2023)
# Molecular target: T1, human CD19 on cells (CD20+ B cells of human PBMC; Raji lymphoma cells) (human, UniProt P15391 20-556)
# T1 sequence (looked up): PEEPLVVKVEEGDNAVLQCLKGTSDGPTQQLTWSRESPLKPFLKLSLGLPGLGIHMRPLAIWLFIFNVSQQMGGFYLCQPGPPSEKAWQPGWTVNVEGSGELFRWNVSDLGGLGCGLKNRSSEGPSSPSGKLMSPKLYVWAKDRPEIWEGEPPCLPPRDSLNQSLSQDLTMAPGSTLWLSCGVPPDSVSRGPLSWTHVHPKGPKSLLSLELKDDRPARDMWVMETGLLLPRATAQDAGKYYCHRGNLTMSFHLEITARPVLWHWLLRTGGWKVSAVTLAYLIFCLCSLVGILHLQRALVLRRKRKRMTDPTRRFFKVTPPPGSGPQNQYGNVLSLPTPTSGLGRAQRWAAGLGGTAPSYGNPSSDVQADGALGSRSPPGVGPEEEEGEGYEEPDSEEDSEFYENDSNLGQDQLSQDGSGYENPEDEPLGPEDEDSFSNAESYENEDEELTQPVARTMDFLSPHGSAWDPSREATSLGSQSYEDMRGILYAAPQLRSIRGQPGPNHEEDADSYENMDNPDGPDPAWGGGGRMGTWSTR
# Assay: cell-based or functional assay
binder,measurement,value
"SI-38E17 (tetraGNC antibody, human CD19 binding domain 21D4 at the Fab region, D2) (other, also called control antibody; a human anti-CD19 antibody (21D4)) heavy: DVVMTQSPSTLSASVGDRVTINCQASESISSWLAWYQQKPGKAPKLLIYEASKLASGVPSRFSGSGSGTEFTLTISSLQPDDFATYYCQGYFYFISRTYVNSFGGGTKVEIKGGGGSGGGGSGGGGSGGGGSEVQLVESGGGLVQPGGSLRLSCAASGFTISTNAMSWVRQAPGKGLEWIGVITGRDITYYASWAKGRFTISRDNSKNTLYLQMNSLRAEDTAVYYCARDGGSSAITSNNIWGQGTLVTVSSGGGGSGGGGSEVQLVQSGAEVKKPGESLKISCKGSGYSFSSSWIGWVRQAPGKGLEWMGIIYPDDSDTRYSPSFQGQVTISADKSIRTAYLQWSSLKASDTAMYYCARHVTMIWGVIIDFWGQGTLVTVSSASTKGPSVFPLAPSSKSTSGGTAALGCLVKDYFPEPVTVSWNSGALTSGVHTFPAVLQSSGLYSLSSVVTVPSSSLGTQTYICNVNHKPSNTKVDKRV[omitted - human IgG1 Fc with changes]GGGGSGGGGSEVQLLESGGGLVQPGGSLRLSCAASGFSFSSGYDMCWVRQAPGKGLEWIACIAAGSAGITYDANWAKGRFTISRDNSKNTLYLQMNSLRAEDTAVYYCARSAFSFDYAMDLWGQGTLVTVSSGGGGSGGGGSGGGGSGGGGSDIQMTQSPSTLSASVGDRVTITCQASQSISSHLNWYQQKPGKAPKLLIYKASTLASGVPSRFSGSGSGTEFTLTISSLQPDDFATYYCQQGYSWGNVDNVFGGGTKVEIKGGGGSGGGGSRSLVESGGGLVQPGGSLRLSCTASGFTISSYHMQWVRQAPGKGLEYIGTISSGGNVYYASSARGRFTISRPSSKNTVDLQMNSLRAEDTAVYYCARDSGYSDPMWGQGTLVTVSSGGGGSGGGGSGGGGSGGGGSDVVMTQSPSSVSASVGDRVTITCQASQNIRTYLSWYQQKPGKAPKLLIYAAANLASGVPSRFSGSGSGTDFTLTISDLEPGDAATYYCQSTYLGTDYVGGAFGGGTKVEIK light: AIQLTQSPSSLSASVGDRVTITCRASQGISSALAWYQQKPGKAPKLLIYDASSLESGVPSRFSGSGSGTDFTLTISSLQPEDFATYYCQQFNSYPFTFGPGTKVDIKRTVAAPSVFIFPPSDEQLKSGTASVVCLLNNFYPREAKVQWKVDNALQSGNSQESVTEQDSKDSTYSLSSTLTLSKADYEKHKVYACEVTHQGLSSPVTKSFNRGEC","EC50 (pM), re-directed T cell cytotoxicity: cytolysis of Raji cells by human CD8 T cells",2.1 pM
